According to PubChem BioAssay AID651567 (National Center for Advancing Translational Sciences (NCATS), 2012):
Out of some 1,200 compounds screened, about 10 (0.8%) were called active. About 4% were inconclusive and are not listed. Calls follow the shape of the dose curve; as a rule, active = well fitted inhibition curve with a large enough effect; inconclusive = small, poorly fitted or top-dose-only effect; inactive = no such curve, though single readings can be large or run the other way. This is one part of the list.

Test: qHTS Assay to Find Inhibitors of Chronic Active B-Cell Receptor Signaling: Hit Validation in OCI-Ly3 Assay
Conditions: OCI-Ly3 IkB-luciferase reporter, Chroma-Glo luminescence, 4 h; series mostly up to 46.1 µM; activity change, negative = inhibition: at the top concentration
Summary of the method: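 OCI-Ly3 cells in IMDM with 0.5% FBS get compound plus 80ng/ml doxycycline (dispensed solution), 4 hrs at 37C. Chroma-Glo read of green IkB-luc and red unfused luc; green/red ratio normalized to basal (0%) and 10 uM MG-132 (100%); concentration-response curves for each signal.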
% is scaled to controls: 0 for no effect and ±100 for the full control effect.

Activity change, negative = inhibition, inactive:
COc1cccc(/C=N/NC(=O)c2[nH]nc3c2CCc2ccccc2-3)c1O -14%
COc1ccc(Nc2cc(C)nc(-n3nc(C)cc3C)n2)cc1 -2.17%
CCCOc1ccc(Cn2ccnc2)cc1[N+](=O)[O-] -0.415%
C=CCNC(=S)N/N=C/c1ccc(C(C)(C)C)cc1 -3.06%
Cc1ccc(NC(=S)NNC(C)(C)C)cc1 -0.754%
COc1cc2c(cc1OC)C(c1cc(C)ccc1C)CC(=O)N2 (configuration not stated) -0.742%
N#CC(C(=S)Nc1ccccc1)c1nc2ccccc2[nH]1 (configuration not stated) -7.01%
CC1=Nc2cc(C(=O)NCCCOC(C)C)ccc2Sc2ccc(C)cc21 -2.02%
COc1ccc(/C=N/NC(=O)c2[nH]c3ccc(Br)cc3c2-c2ccccc2)c(C(=O)O)c1OC -1.95%
CCCCC(=O)O[C@]1(C(=O)CO)CC[C@H]2[C@@H]3CCC4=CC(=O)CC[C@]4(C)[C@H]3[C@@H](O)C[C@@]21C -1.97%
Cc1cccc(OCCCC(=O)NNC(=O)c2cccc(N(C)C)c2)c1 -0.0947%
O=C(Cc1ccc(-c2ccccc2)cc1)NCc1ccccc1 -2.19%
Cc1nc2c(C(F)(F)F)cccc2c2c1CCS2 -1.14%
COc1ccc(/C=C/c2ccncc2)cc1OC 0.0427%
COc1cccc(/C=N/Nc2nc(Nc3ccccc3)nc(-n3nc(C)cc3C)n2)c1O -14.3%
CC(C)(C)NNC(=S)Nc1cccc(F)c1 0.0382%
COc1ccccc1NC(=O)COc1ccc(-c2nn(C)c(=O)c3ccccc23)cc1 -2.69%
Cc1ccc(-c2ccccc2NC(=O)CS(=O)CC(=O)Nc2ccc(C)c(Cl)c2)o1 (configuration not stated) -1.92%
Cc1ccc(-n2cc(CNCCc3ncc(C)[nH]3)c(-c3ccc(F)cc3)n2)cc1 0.502%
COc1ccc(/C(C)=N/Nc2nc3ccccc3nc2C)cc1OC -4.17%
O=C(COc1ccccc1-c1ccccc1)N/N=C/c1ccc2ccccc2c1 -1.67%
CCOc1ccccc1/C=N/Nc1nc2c(N)ncnc2n1[C@H]1O[C@@H](CO)[C@H](O)[C@@H]1O 0.035%
O=C(CN1CCCc2ccccc21)N/N=C/c1ccccc1O -0.607%
Cc1cc(C)c2nc(SCC(=O)N3CC(=O)Nc4ccccc43)c(C#N)cc2c1 -4%
COc1cc(OC)cc(C(=O)N/N=C(\C)CC(=O)Nc2ccccn2)c1 -3.7%
CC[C@]12c3[nH]c4cc(CCC(=O)N(C)C)ccc4c3CCN1C(=O)[C@@H](CC(=O)NC/C=C(\C)CCC=C(C)C)C[C@@H]2C(=O)N1CCN(C(=O)c2ccco2)CC1 -15.4%
COc1ccc(NCC(=O)n2c(C)c(C)c3ccccc32)cc1 -1.51%
COc1ccccc1-n1cnc2cc(NCc3cccs3)ccc21 40.4%
Cc1cc(C)nc(SCc2ccc(C(=O)N/N=C/c3cccnc3)cc2)n1 -0.502%
COc1ccc(S(=O)(=O)N2CCCCC2)cc1NC(=O)c1ccc(OC)c(OC)c1 -1.06%
COc1cc2c(cc1OC)-c1cc(NC3CCCCC3)nc(=O)n1CC2 -0.939%
O=C(COC(=O)Cc1ccc(-c2ccccc2)cc1)NCc1ccccc1 -0.0516%
COc1cccc(CSc2nc3ccccc3cc2C=O)c1 -1.56%
NC(=S)N/N=C/c1ncc(C(F)(F)F)cc1Cl -19%
CCOc1ccc(NC(=O)c2cc(OC)nc3ccccc23)cc1 -2.68%
COc1cccc(/C=C/C(=O)Nc2cc(S(=O)(=O)N3CCOCC3)ccc2OC)c1 -0.265%
COc1cc(C2C(C#N)=C(N)Oc3cc(N)ccc32)cc(OC)c1OC (configuration not stated) -10%
Cc1cc(=O)oc2cc(OCC3CC(c4ccccc4Cl)=NO3)ccc12 (configuration not stated) -1.99%
CNC(=S)N/N=C/c1ccco1 -0.913%
CNC(=S)N/N=C(\C)c1ccc(Cl)c(Cl)c1 0.0372%
COc1cccc(-c2nnc(SCC(=O)Nc3cc(C)on3)o2)c1 -1.71%
COc1ccc(/C=C/C(=O)Nc2cc(S(=O)(=O)N3CCOCC3)ccc2OC)cc1 -1.83%
COc1ccccc1CNS(=O)(=O)c1ccc(-c2cnc(C3CC3)o2)cc1 -3.8%
Nc1cc(=O)[nH]c(SCC(=O)Nc2cc(Cl)cc(Cl)c2)n1 -4.6%
C[C@]12C=CC(=O)C=C1CC[C@@H]1[C@@H]2[C@@H](O)C[C@@]2(C)[C@H]1CC[C@]2(O)C(=O)COC(=O)CCC(=O)O -1.59%
COc1ccc(/C=N\NC(=O)c2c(C)nc3ccc(Br)cn23)cc1 -1.89%
CC(=O)[C@H]1CC[C@H]2[C@@H]3C[C@H](C)C4=CC(=O)CC[C@]4(C)[C@H]3[C@@H](O)C[C@]12C -0.785%
CCC(=O)Nc1nonc1-c1nc2ccccc2n1Cc1cccc2ccccc12 -2.61%
Cc1ccc(Oc2ccc(-c3nc(N)nc(N)n3)cc2)cc1C -2.22%
C=CCn1c(SCC(=O)Nc2cccc(S(N)(=O)=O)c2)nc2sc(C)c(C)c2c1=O -0.698%
Cc1cccc(NS(=O)(=O)c2ccc(C3CCCCC3)cc2)n1 -1.61%
CCOc1cc(C(=O)N(C)CC(=O)Nc2cccc3ccccc23)ccc1OC -0.595%
CNC(=S)N/N=C(\C)c1ccc2c(c1)OCCO2 -0.452%
Cc1ccc(C#N)c(SCc2ccccc2[N+](=O)[O-])n1 -0.695%
CC(NC(=O)c1ccc(S(=O)(=O)NCc2ccco2)cc1)c1ccc(F)cc1 (configuration not stated) -0.364%
Cn1c(=O)n(Cc2ccccc2Cl)c2ccccc21 -0.537%
COc1ccccc1NC(=O)Cn1nnc(C(=O)NCc2cccs2)c1N -0.743%
COC(=O)C1=CN(Cc2ccc(OC)c(OC)c2)C=C(C(=O)OC)C1c1cccc(O)c1 -0.462%
Cc1ccc(N2C(=O)c3cccc4c(N)ccc(c34)C2=O)c2cccnc12 -1.08%
CCOc1cc(/C=C(/C#N)C(=O)Nc2ccc(O)cc2)cc(Br)c1O -11.9%
NC(=O)c1c(NC(=O)CSc2nc(N)cc(=O)[nH]2)sc2c1CCCC2 -11.2%
O=C(Cc1ccc(-n2c(=O)c3ccccc3n(Cc3ccccc3Cl)c2=O)cc1)NCC1CCCO1 (configuration not stated) -1.83%
O=C(COc1ccc(Oc2ccccc2)cc1)NCc1cn2ccccc2n1 -1.45%
COc1ccc(/C(C)=N/Nc2ncc(Cl)cc2Cl)c(O)c1 -0.146%
COc1ccc(/C=N/NC(=O)c2[nH]nc3c2CCc2ccccc2-3)cc1OC -10%
Cc1ccc(S(=O)(=O)N2CCN(C(=O)CSc3n[nH]c(N)n3)CC2)c(C)c1 -0.591%
CCC(C)N(C(=O)COC(=O)c1cc([N+](=O)[O-])ccc1N1CCOCC1)C1CCS(=O)(=O)C1 (configuration not stated) 0.0699%
N#CC1=C(S)N(c2ccc(F)cc2)C(c2ccco2)NC1=O (configuration not stated) -0.842%
Cc1ccc(NS(=O)(=O)c2ccc(-c3cnc(C4CC4)o3)cc2)c(C)c1 -13.5%
Cc1cc(NC2CCCCC2)nc2ccccc12 -0.117%
CCOc1ccc(Nc2cc(C)nc(-n3nc(C)cc3C)n2)cc1 -3.94%
CCOc1ccccc1C1C2=C(COC2=O)Nc2cc3c(cc21)OCO3 (configuration not stated) -5.31%
CCCCC[C@H](O)/C=C/[C@@H]1[C@@H](CCCCCCC(=O)O)[C@@H](O)C[C@H]1O -1.13%
S=c1[nH]cnc2sc(-c3ccccc3)cc12 -0.433%
Cc1ccc(CSc2nc3ccccc3cc2C=O)cc1 1.14%
COc1ccc(C2CC(=O)Nc3cc(OC)c(OC)cc32)cc1Br (configuration not stated) -1.31%
COc1ccc(S(N)(=O)=O)cc1C(=O)OCCCOC(=O)c1cc(S(N)(=O)=O)ccc1OC 0.425%
O=C(Oc1c(CN2CCOCC2)cc(Cl)c2cccnc12)c1ccccc1F -7.82%
COc1ccc(-c2ccc(CCC(=O)O)n2-c2ccccc2OC)cc1 -0.144%
COc1ccc(/C=N\NC(=O)c2ccccc2F)cc1COc1ccc(F)cc1F -6.34%
CCN(CC)c1ccc(/C=N/N=C(N)N)c(O)c1 -1.23%
C#CCOCCOCCOCCNc1nc(N2CCN(C(=O)[C@H](C(C)C)n3cc(CCO)nn3)CC2)nc(N2CCN(C(=O)[C@H]([C@@H](C)CC)n3cc(CCCN=C(N)N)nn3)CC2)n1 -0.271%
Cc1cc(C)n(-c2nc3ccccc3c(=O)n2OCC#N)n1 27.8%
FC(F)(F)c1nnc2ccc(Cl)nn12 0.0223%
Cc1csc(NC(=S)Nc2cccc(Cl)c2)n1 37.2%
CC[C@]1(O)C[C@@H]2CN(CCc3c([nH]c4ccccc34)[C@@](C(=O)OC)(c3cc4c(cc3OC)N(C)[C@H]3[C@@](O)(C(=O)OC)[C@H](OC(C)=O)[C@]5(CC)C=CCN6CC[C@]43[C@@H]65)C2)C1 -5.15%
CCOC(=O)Nc1ccc2nc(N3CCCCCC3)sc2c1 0.164%
COc1cccc(Nc2sc(C(=O)c3ccc(Cl)cc3)c(N)c2C(=O)NCc2ccc(C)cc2)c1 -1.56%
CCN(c1ccccc1)S(=O)(=O)c1ccc(C(=O)NNC(=O)c2ccccc2F)cc1 -0.453%
CN(C)c1ccc(-c2nn3c(-c4ccccc4Cl)nnc3s2)cc1 -2.19%
O=C(/C=C/c1cccs1)c1cc(Br)ccc1OC(=O)N1CCOCC1 -3.13%
CC(=O)c1ccsc1-c1c(C)cc2oc(=O)cc(-c3ccccc3)c2c1C -1.81%
COC(=O)c1[nH]c2c(c1C)C(=O)CC(c1ccccc1)C2 (configuration not stated) -1.68%
Cc1noc(C)c1COc1ccc(C(=O)NCc2cccs2)cc1 -1.3%
COc1ccc(/C=C/C(=O)c2cc(F)ccc2OC(=O)c2ccc(OC)c(OC)c2)cc1OC -5.26%
CCc1ccc(CCC(=O)Nc2ncc(Cc3ccccc3Cl)s2)o1 -0.724%
CCCNS(=O)(=O)c1cccc(C(=O)OCc2cc(=O)oc3cc(OC)ccc23)c1 -16.4%
Cc1ccc(NC(=O)c2ccco2)c([N+](=O)[O-])c1 0.0255%
Nc1ccc(C(=O)n2c3ccccc3c3ccccc32)cc1 -4.18%
COc1ccc(S(=O)(=O)Nc2cc3c(C(C)=O)c(C)oc3c3ccccc23)cc1 -4.89%
COc1ccc(-c2c/c(=N\c3nc(-c4ccccc4)c(C)s3)c3ccccc3o2)cc1O -2.11%
COc1ccc(C)cc1NS(=O)(=O)c1ccc(-c2cnc(C3CC3)o2)cc1 -3.37%
